Screen size: about 48,000 compounds; about 1,200 (2.5%) were called active. Roughly 2% stayed inconclusive and do not appear here.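 The calls were made as follows: active = activation of at least 60% and not above a set upper limit (about 1 call in 100 departs from these limits); inconclusive = activation of 40% to 60%, or above that upper limit; inactive = activation under 40%.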 The list shows a part of the results.
The molecules below were run against Probable G-protein coupled receptor 32 (Homo sapiens) (UniProt O75388) (assay: qHTS for Agonists of Human Resolvin D1 Receptor DRV1). Conditions: CHO-K1 GPR32 beta-arrestin PathHunter luminescence, 90 min; at 76.9 µM; stronger effect = higher value; zero percent set by DMSO-only wells.
Chain of UniProt O75388 (O75388 whole entry, looked up): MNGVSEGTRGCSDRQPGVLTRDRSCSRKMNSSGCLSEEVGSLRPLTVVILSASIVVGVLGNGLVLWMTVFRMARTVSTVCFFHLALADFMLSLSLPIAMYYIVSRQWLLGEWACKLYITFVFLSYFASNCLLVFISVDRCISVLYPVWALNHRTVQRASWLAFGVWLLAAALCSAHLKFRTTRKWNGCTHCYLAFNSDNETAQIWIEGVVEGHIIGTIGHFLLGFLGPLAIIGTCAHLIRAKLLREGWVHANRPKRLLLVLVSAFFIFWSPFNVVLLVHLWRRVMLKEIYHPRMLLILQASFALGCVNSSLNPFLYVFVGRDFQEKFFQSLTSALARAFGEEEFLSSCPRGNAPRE
How it was run: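 Luminescent readout of beta-Gal complementation quantifies ligand-induced beta-arrestin association with GPR32 in CHO-K1 cells; 90 min compound incubation at 37 °C, detection 1 h at room temperature.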
Also: 0% is about no effect.

activation, inactive:
O=C(CSc1nc2c([nH]c3ccccc32)c(=O)n1-c1cccc(Cl)c1)NCc1ccccc1 -3.54%
COc1cc2c(cc1OC)C(COc1cc(C)cc(C)c1)N(C(=O)c1ccc(S(=O)(=O)N3CCCC3)cc1)CC2 (stereo not drawn) -8.85%
COC(=O)c1ccc(CNC(=O)c2nc(Cn3nc(C)c(Br)c3C)no2)cc1 9.83%
CCc1nc2ccc(C(=O)N3CCN(c4cccc(OC)c4)CC3)cc2nc1CC -26.4%
CCc1nnc(NC(=O)CSc2nc3c([nH]c4ccccc43)c(=O)n2-c2ccc(C)cc2)s1 -17.4%
O=C(COc1ccccc1)Nc1sc2c(c1C(=O)Nc1ccccc1)CCCCC2 1.83%
CCOC(=O)C1CCCN(C(=O)Cn2ncc3c4ccccc4n(Cc4ccc(F)cc4)c3c2=O)C1 (stereo not drawn) -22.3%
Cc1ccc(C)c(-c2ccc(=O)n(Cc3ccc(F)cc3Cl)n2)c1 -29.4%
CCOC(=O)c1ccc(NC(=O)CCn2c(=O)oc3ccccc32)cc1 43.6%
CC(=O)SCC(CC(=O)c1ccc(C)cc1)C(=O)O (stereo not drawn) -70.6%
CCOC(=O)CNC(=O)CC(c1cc(OC)c(OC)c(OC)c1)N1Cc2ccccc2C1=O (stereo not drawn) 5.26%
CN(Cc1ccccc1)C(=O)Cn1c(=O)c2cccn2c2ccc(F)cc21 -14.7%
Cc1ccc2[nH]c(CSc3nnc(NC(=O)COc4ccccc4Cl)s3)cc(=O)c2c1 13.8%
Cc1ccc(CNC(=O)c2sc3ncnc(N(C)C4CCCCC4)c3c2C)cc1 -6.62%
CCc1ccc(NC(=O)C2CCCN(S(=O)(=O)c3cccc4cccnc34)C2)cc1 (stereo not drawn) -21.5%
Cc1ccccc1NC(=O)C1CCN(S(=O)(=O)c2ccccc2)CC1 11.7%
O=S(=O)(NCC(c1ccco1)N1CCOCC1)c1ccc(Cl)cc1 (stereo not drawn) 1.21%
Cc1ccc(S(=O)(=O)n2nc(-c3ccccc3)nc2NCc2ccccc2Cl)cc1 -8.72%
Cc1cccc(N2C(=O)C(CC(=O)Nc3ccc(F)cc3)N(C3CCCC3)C2=O)c1 (stereo not drawn) -18.7%
Cc1ccc(-c2cc(C(=O)N3CCN(S(=O)(=O)c4ccc(Br)s4)CC3)[nH]n2)cc1C -16.1%
Cc1oc2ccc(O)c(CN3CCN(C)CC3)c2c1C(=O)Nc1ccc(C(C)C)cc1 -7.29%
C#C[C@]1(O)CC[C@H]2[C@@H]3CCC4=Cc5oncc5C[C@]4(C)[C@H]3CC[C@@]21C 33.3%
Cc1ccc(C)c(NC(=O)Cn2c(=O)n(Cc3nc(C)no3)c(=O)c3cc4c(cc32)OCO4)c1 -4.48%

Source: PubChem BioAssay AID1346428 (National Center for Advancing Translational Sciences (NCATS), 2018)
